In the antibiotic and cytotoxicity screens of Wong et al. (2023):
The other results are listed elsewhere or left out.

Tests used:
[1] = tested on: HSkMC (human skeletal muscle cells); experiment: cytotoxicity call (relative viability < 0.9); settings: 10 µM
[2] = tested on: HepG2; experiment: cytotoxicity call (relative viability < 0.9); settings: 10 µM
[3] = tested on: S. aureus RN4220; experiment: growth inhibition call (relative growth <= 0.2); settings: 50 µM

SMILES	cytotoxicity call [1]	cytotoxicity call [2]	growth inhibition call [3]
C[C@@H]1CN([C@H](C)CO)C(=O)c2cc(NC(=O)Nc3ccc4c(c3)OCO4)ccc2O[C@@H](C)CCCCO[C@@H]1CN(C)C(=O)NC1CCCCC1	inactive	inactive	inactive
COc1ccc(NC(=O)N(C)C[C@H]2OCCCC[C@H](C)Oc3ccc(NS(=O)(=O)c4c(C)noc4C)cc3C(=O)N([C@@H](C)CO)C[C@H]2C)cc1	inactive	inactive	inactive
COc1ccc(N2C(=O)C[C@@H](N3CCCN([C@H]4CC(=O)N(c5ccc(OC)cc5)C4=O)CC3)C2=O)cc1	inactive	inactive	inactive
OCc1ccc(-c2cccs2)cc1	inactive	inactive	inactive
Cc1noc(C)c1NC(=O)N(C)C[C@@H]1Oc2ccc(NC(=O)Cn3cnnn3)cc2CC(=O)N([C@H](C)CO)C[C@H]1C	inactive	inactive	inactive
C[C@@H]1CN([C@@H](C)CO)C(=O)c2cc(NS(=O)(=O)c3ccc(F)cc3)ccc2O[C@H]1CN(C)S(=O)(=O)c1ccccc1	inactive	inactive	inactive
Cc1ccc(S(=O)(=O)N(C)C[C@@H]2Oc3c(NC(=O)C4CC4)cccc3C(=O)N([C@H](C)CO)C[C@H]2C)cc1	inactive	inactive	inactive
O=C(C[C@@H]1CC[C@H]2[C@@H](COC[C@@H](O)CN2C(=O)Nc2cccc(F)c2)O1)NCCCN1CCOCC1	inactive	inactive	inactive
C[C@@H]1CN([C@H](C)CO)C(=O)c2cc(NC(=O)CCCN(C)C)ccc2O[C@H]1CN(C)C(=O)Nc1ccc2c(c1)OCO2	inactive	inactive	inactive
COc1ccc(CN(C)C[C@@H]2OCCCC[C@@H](C)Oc3ccc(NC(=O)Nc4ccc(OC)cc4)cc3C(=O)N([C@@H](C)CO)C[C@@H]2C)cc1	inactive	active	inactive
CNC[C@@H]1OCCCC[C@@H](C)Oc2ccc(NC(=O)Nc3cccc4ccccc34)cc2C(=O)N([C@H](C)CO)C[C@H]1C	inactive	inactive	inactive
CC(C)NC(=O)N(C)C[C@@H]1Oc2ccc(NS(=O)(=O)c3ccc(F)cc3)cc2CC(=O)N([C@H](C)CO)C[C@H]1C	inactive	inactive	inactive
C[C@@H]1CN([C@@H](C)CO)C(=O)c2cccc(NC(=O)Nc3cccc4ccccc34)c2O[C@H]1CN(C)S(=O)(=O)c1cccs1	inactive	inactive	inactive
C[C@H](CO)N1C[C@H](C)[C@H](CN(C)C(=O)c2ccccc2)OCCCC[C@H](C)Oc2ccc(NC(=O)NC3CCCCC3)cc2C1=O	inactive	inactive	inactive
Cc1noc(C)c1NC(=O)N(C)C[C@@H]1Oc2ccc(NC(=O)Nc3ccc(C(F)(F)F)cc3)cc2C(=O)N([C@H](C)CO)C[C@@H]1C	inactive	inactive	inactive
CC(C)NC(=O)N(C)C[C@@H]1Oc2cc(C#Cc3ccc(F)cc3)ccc2S(=O)(=O)N([C@@H](C)CO)C[C@@H]1C	inactive	inactive	inactive
